# In the supplement of paper PMC8728848:
# The other results are listed elsewhere or left out.
# Assays:
# Assay in all cases: glycan array binding signal (z-score within array); higher = stronger binding
# Conditions in all cases: glycan notation: IUPAC condensed, linker removed
# [1] = biological target: Gal(b1-4)GlcNAc(b1-6)GalNAc
# Procedure, shortened: (§1)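 Negative Z-scores can be read as non-binding. The Z-score is calculated within each array and then averaged across arrays of one protein sequence at different concentrations or buffers and across linkers. Arrays, 3228 in all, were curated from the Consortium for Functional Glycomics database and kept only where the protein sequence was available.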
# [2] = biological target: Gal(b1-4)GlcNAc(b1-6)[Gal(b1-3)]GalNAc
# Procedure, shortened: as §1
# [3] = biological target: Gal(b1-4)GlcNAc(b1-6)[Gal(b1-4)GlcNAc(b1-3)]GalNAc
# Procedure, shortened: as §1
# Gal(b1-4)GlcNAc6P = biological target: Gal(b1-4)GlcNAc6P
# Procedure, shortened: as §1
# Gal(b1-6)Gal = biological target: Gal(b1-6)Gal
# Procedure, shortened: as §1
# Gal3S(b1-3)GalNAc = biological target: Gal3S(b1-3)GalNAc
# Procedure, shortened: as §1
# Gal3S(b1-3)GlcNAc = biological target: Gal3S(b1-3)GlcNAc
# Procedure, shortened: as §1
# [4] = biological target: Gal3S(b1-3)[Fuc(a1-4)]GlcNAc
# Procedure, shortened: as §1
# Gal3S(b1-4)Glc = biological target: Gal3S(b1-4)Glc
# Procedure, shortened: as §1
# Gal3S(b1-4)Glc6S = biological target: Gal3S(b1-4)Glc6S
# Procedure, shortened: as §1
# Gal3S(b1-4)GlcNAc = biological target: Gal3S(b1-4)GlcNAc
# Procedure, shortened: as §1
# [5] = biological target: Gal3S(b1-4)[Fuc(a1-3)]Glc6S
# Procedure, shortened: as §1
# [6] = biological target: Gal3S(b1-4)[Fuc(a1-3)]GlcNAc
# Procedure, shortened: as §1
# [7] = biological target: Gal3S(b1-4)[Fuc(a1-3)]GlcNAc6S
# Procedure, shortened: as §1
# Gal3S4S(b1-4)GlcNAc = biological target: Gal3S4S(b1-4)GlcNAc
# Procedure, shortened: as §1
# Gal3S6S(b1-4)GlcNAc = biological target: Gal3S6S(b1-4)GlcNAc
# Procedure, shortened: as §1
# Gal3S6S(b1-4)GlcNAc6S = biological target: Gal3S6S(b1-4)GlcNAc6S
# Procedure, shortened: as §1
# Gal4S(b1-4)GlcNAc = biological target: Gal4S(b1-4)GlcNAc
# Procedure, shortened: as §1
# Gal4S6S(b1-4)GlcNAc = biological target: Gal4S6S(b1-4)GlcNAc
# Procedure, shortened: as §1
# Gal6P(b1-4)GlcNAc = biological target: Gal6P(b1-4)GlcNAc
# Procedure, shortened: as §1
# Gal6S(b1-3)GlcNAc = biological target: Gal6S(b1-3)GlcNAc
# Procedure, shortened: as §1
# Gal6S(b1-3)GlcNAc6S = biological target: Gal6S(b1-3)GlcNAc6S
# Procedure, shortened: as §1
# Gal6S(b1-4)Glc = biological target: Gal6S(b1-4)Glc
# Procedure, shortened: as §1
# Gal6S(b1-4)Glc6S = biological target: Gal6S(b1-4)Glc6S
# Procedure, shortened: as §1
# Gal6S(b1-4)GlcNAc = biological target: Gal6S(b1-4)GlcNAc
# Procedure, shortened: as §1
# Gal6S(b1-4)GlcNAc6S = biological target: Gal6S(b1-4)GlcNAc6S
# Procedure, shortened: as §1
# GalNAc(a1-3)Gal = biological target: GalNAc(a1-3)Gal
# Procedure, shortened: as §1
# GalNAc(a1-3)GalNAc = biological target: GalNAc(a1-3)GalNAc
# Procedure, shortened: as §1
# [8] = biological target: GalNAc(a1-3)GalNAc(b1-3)Gal(a1-4)Gal(b1-4)Glc
# Procedure, shortened: as §1
# [9] = biological target: GalNAc(a1-3)GalNAc(b1-3)Gal(a1-4)Gal(b1-4)GlcNAc
# Procedure, shortened: as §1
# GalNAc(b1-3)Gal = biological target: GalNAc(b1-3)Gal
# Procedure, shortened: as §1
# [10] = biological target: GalNAc(b1-3)Gal(a1-4)Gal(b1-4)GlcNAc
# Procedure, shortened: as §1
# [11] = biological target: GalNAc(b1-3)Gal(a1-4)Gal(b1-4)GlcNAc(b1-3)Gal(b1-4)Glc
# Procedure, shortened: as §1
# [12] = biological target: GalNAc(b1-3)Gal(a1-6)Gal(b1-4)Glc
# Procedure, shortened: as §1
# GalNAc(b1-3)GalNAc = biological target: GalNAc(b1-3)GalNAc
# Procedure, shortened: as §1
# GalNAc(b1-3)GlcNAc = biological target: GalNAc(b1-3)GlcNAc
# Procedure, shortened: as §1
# GalNAc(b1-4)Gal(b1-4)Glc = biological target: GalNAc(b1-4)Gal(b1-4)Glc
# Procedure, shortened: as §1
# GalNAc(b1-4)GlcNAc = biological target: GalNAc(b1-4)GlcNAc
# Procedure, shortened: as §1
binder,measurement,setting,value
GS13455A-bfa-343-25-343 (Bacteroides fragilis) (protein) KDEIQIVDQDTSWQMDNKYIEEDIREQLGIDPFTDLVYLGYYGNPYTQLEAINDLVNTTLVGKNELSFKVKVTKPYKEDIKVNLMKEDKLVTDFPEMAEGIPLFPSENCTFEGGVLKAGELETTVKLTLKDVEKLNNLSGYVMAIKLTMEGSHEHLAIARTRSSYFVKLNLSIRLDNIDSSNKKIEGKGFNKEISFKSDIRPDKLGSLNDGNFTANNWYTSNANNYLTIILPEKQSLKGFRLDTNTSPSGSYMLKSCRVMVETPDGNWVNHGVFDRKSMDGIAYISFKKPVECTKVRFENMMAFNGRFSVDVNEVTAFR,glycan array binding signal (z-score),[1],0.827
same,glycan array binding signal (z-score),[2],-0.416
same,glycan array binding signal (z-score),[3],-0.037
same,glycan array binding signal (z-score),Gal(b1-4)GlcNAc6P,-0.411
same,glycan array binding signal (z-score),Gal(b1-6)Gal,-0.307
same,glycan array binding signal (z-score),Gal3S(b1-3)GalNAc,-0.267
same,glycan array binding signal (z-score),Gal3S(b1-3)GlcNAc,-0.102
same,glycan array binding signal (z-score),[4],0.109
same,glycan array binding signal (z-score),Gal3S(b1-4)Glc,1.7
same,glycan array binding signal (z-score),Gal3S(b1-4)Glc6S,-0.189
same,glycan array binding signal (z-score),Gal3S(b1-4)GlcNAc,-0.033
same,glycan array binding signal (z-score),[5],1.38
same,glycan array binding signal (z-score),[6],-0.28
same,glycan array binding signal (z-score),[7],-0.293
same,glycan array binding signal (z-score),Gal3S4S(b1-4)GlcNAc,-0.331
same,glycan array binding signal (z-score),Gal3S6S(b1-4)GlcNAc,-0.168
same,glycan array binding signal (z-score),Gal3S6S(b1-4)GlcNAc6S,1.68
same,glycan array binding signal (z-score),Gal4S(b1-4)GlcNAc,1.01
same,glycan array binding signal (z-score),Gal4S6S(b1-4)GlcNAc,0.197
same,glycan array binding signal (z-score),Gal6P(b1-4)GlcNAc,-0.523
same,glycan array binding signal (z-score),Gal6S(b1-3)GlcNAc,-0.365
same,glycan array binding signal (z-score),Gal6S(b1-3)GlcNAc6S,-0.888
same,glycan array binding signal (z-score),Gal6S(b1-4)Glc,-0.442
same,glycan array binding signal (z-score),Gal6S(b1-4)Glc6S,0.768
same,glycan array binding signal (z-score),Gal6S(b1-4)GlcNAc,1.12
same,glycan array binding signal (z-score),Gal6S(b1-4)GlcNAc6S,0.412
same,glycan array binding signal (z-score),GalNAc(a1-3)Gal,0.262
same,glycan array binding signal (z-score),GalNAc(a1-3)GalNAc,-0.437
same,glycan array binding signal (z-score),[8],0.862
same,glycan array binding signal (z-score),[9],0.981
same,glycan array binding signal (z-score),GalNAc(b1-3)Gal,0.005
same,glycan array binding signal (z-score),[10],1.43
same,glycan array binding signal (z-score),[11],-0.285
same,glycan array binding signal (z-score),[12],-0.371
same,glycan array binding signal (z-score),GalNAc(b1-3)GalNAc,0.329
same,glycan array binding signal (z-score),GalNAc(b1-3)GlcNAc,-0.525
same,glycan array binding signal (z-score),GalNAc(b1-4)Gal(b1-4)Glc,1.08
same,glycan array binding signal (z-score),GalNAc(b1-4)GlcNAc,-0.125
